The full ranking holds about 33,000 sequences; the median of “E-score (-0.5 to 0.5)” is about -0.036, and the highest 2% start at about 0.37. Some of the results follow.
Molecular target: T1, Yer064c (UniProt P40041)
T1 sequence: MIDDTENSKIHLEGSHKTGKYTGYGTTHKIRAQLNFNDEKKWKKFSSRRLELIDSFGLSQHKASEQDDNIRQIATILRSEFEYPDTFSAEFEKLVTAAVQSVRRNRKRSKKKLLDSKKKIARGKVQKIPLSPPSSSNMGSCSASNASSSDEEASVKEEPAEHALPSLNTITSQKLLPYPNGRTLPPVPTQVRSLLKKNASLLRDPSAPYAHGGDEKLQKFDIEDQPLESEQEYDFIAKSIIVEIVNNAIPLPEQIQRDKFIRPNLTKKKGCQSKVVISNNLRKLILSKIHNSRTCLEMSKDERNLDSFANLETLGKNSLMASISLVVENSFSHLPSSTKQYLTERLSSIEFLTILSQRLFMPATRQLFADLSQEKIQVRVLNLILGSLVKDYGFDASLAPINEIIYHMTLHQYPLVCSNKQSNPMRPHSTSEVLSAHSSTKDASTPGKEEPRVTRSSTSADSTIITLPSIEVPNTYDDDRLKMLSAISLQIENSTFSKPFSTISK
Experiment: PBM E-score (8-mer binding enrichment) (E-score (-0.5 to 0.5)); higher = stronger / more preferred TF binding; most listed sequences are background and not binding sites
Details: protein concentration: 200 nM; construct: GST-full length
In short: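 Yeast transcription factors carrying a GST tag, as full-length proteins or DNA-binding domains, were produced by PURExpress in vitro transcription/translation. About 100-200 nM protein was applied to universal all-10-mer Agilent arrays, double-stranded by primer extension on fresh or once-stripped slides. Bound protein was detected with fluorescent anti-GST, and scans were normalised with masliner. The Universal PBM Analysis Suite gave each ungapped eight-base word, pooled with its reverse complement, an E-score, a modified Wilcoxon-Mann-Whitney statistic.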

First: CGGACTAA
Second: AGGGATGG
The “PBM E-score” value of the first is higher: 0.342 for the first, -0.114 for the second.

Compared with GGGAAGAC, TAGCTAAA is lower in “PBM E-score” value: 0.187 for the first, 0.0446 for the second.

Compared with ACGACGCA, AATCCCCA is higher in “PBM E-score” value: -0.135 for the first, -0.131 for the second.

Going from CACACCAG to CTTCGGGC, the “PBM E-score” value falls from -0.0384 to -0.184.

First: GGTACTAC
Second: GCGAAGCA
The “PBM E-score” value of the first is higher: 0.166 for the first, -0.156 for the second.

First: CCACTAAG
Second: AGTGGCAT
The “PBM E-score” value of the first is higher: 0.0593 for the first, -0.0556 for the second.

First: AGTAGCCC
Second: CGCAGTTC
The “PBM E-score” value of the first is higher: -0.0847 for the first, -0.194 for the second.

First: GGAGGACC
Second: TATTGGGA
The “PBM E-score” value of the first is lower: -0.37 for the first, 0.0701 for the second.

Going from AGATTTTA to AGGACTGC, the “PBM E-score” value falls from 0.172 to 0.13.

Compared with AGACTCAG, CCCGATTA is lower in “PBM E-score” value: 0.434 for the first, 0.0668 for the second.

First: CACCGATG
Second: GAATTCAC
The “PBM E-score” value of the first is higher: 0.0254 for the first, -0.139 for the second.

First: GTATCCAA
Second: CTCGTTGA
The “PBM E-score” value of the first is lower: -0.0305 for the first, 0.103 for the second.

First: TCCAATCA
Second: AAATTAGA
The “PBM E-score” value of the first is lower: 0.126 for the first, 0.177 for the second.

Going from CCATGTGA to CACCGGAA, the “PBM E-score” value falls from 0.0726 to -0.0773.

Going from GAAAGTCC to ATTGACAG, the “PBM E-score” value rises from -0.215 to 0.1.

Going from ACCTTTGA to ATTACGCG, the “PBM E-score” value falls from 0.15 to 0.00024.

Going from ACGTCATG to ACCAGCGA, the “PBM E-score” value falls from 0.21 to -0.136.

Going from CGGGTAAC to GCAATCGA, the “PBM E-score” value rises from -0.0478 to -0.0206.

First: ATCCTCAA
Second: CAGCCGCA
The “PBM E-score” value of the first is higher: 0.198 for the first, -0.202 for the second.

Going from ACAAGGGT to TCATGGAA, the “PBM E-score” value rises from -0.172 to 0.175.

First: AGTAGCAC
Second: GGAACTCA
The “PBM E-score” value of the first is lower: -0.0101 for the first, 0.191 for the second.

First: ACATGGGT
Second: AAGGATAG
The “PBM E-score” value of the first is higher: 0.147 for the first, 0.0139 for the second.

First: CTGACCGC
Second: TCATAGGA
The “PBM E-score” value of the first is lower: -0.071 for the first, 0.346 for the second.

Compared with TAAAGAAA, AGCTACGC is lower in “PBM E-score” value: 0.0535 for the first, -0.2 for the second.

Compared with ACGAACGC, ACGTTAGG is lower in “PBM E-score” value: -0.112 for the first, -0.158 for the second.

Going from ACTGAAAA to GGTAGTCA, the “PBM E-score” value rises from -0.0436 to 0.479.

Going from ATCACCAG to CGCGGATA, the “PBM E-score” value rises from 0.0995 to 0.139.

Compared with ACGCCTCG, CTTAGCTA is higher in “PBM E-score” value: -0.28 for the first, 0.0847 for the second.

First: CTTCTCTC
Second: GCGTTGTA
The “PBM E-score” value of the first is higher: -0.0307 for the first, -0.156 for the second.

Going from CCATGAAA to CTAGCCAC, the “PBM E-score” value falls from -0.0342 to -0.097.

Going from GTATTCGA to GTGGGCGA, the “PBM E-score” value rises from -0.351 to 0.0934.

First: ACGGATCT
Second: CCGGAGAC
The “PBM E-score” value of the first is lower: -0.275 for the first, 0.00524 for the second.

Compared with ACAGACCA, CAGAGGAC is higher in “PBM E-score” value: -0.00024 for the first, 0.0554 for the second.

First: ACTAGTAT
Second: ATAGAACC
The “PBM E-score” value of the first is higher: 0.227 for the first, 0.0363 for the second.

Compared with AGAAAACG, GGACTCCA is higher in “PBM E-score” value: -0.0675 for the first, 0.176 for the second.

First: CCCCATGA
Second: CCATCAAG
The “PBM E-score” value of the first is higher: 0.0369 for the first, 0.00671 for the second.

First: ACCATCCA
Second: CACGTATA
The “PBM E-score” value of the first is lower: -0.051 for the first, 0.104 for the second.

Going from CGTCCGGA to ACGTCTAT, the “PBM E-score” value rises from -0.0836 to 0.0252.

Compared with CCTGGGCA, ATTAAGCG is higher in “PBM E-score” value: -0.0533 for the first, 0.146 for the second.

Compared with TAACCTCA, CATCGGAC is lower in “PBM E-score” value: -0.00381 for the first, -0.0466 for the second.

First: AGCTATGA
Second: AAATCTGA
The “PBM E-score” value of the first is higher: 0.255 for the first, 0.00848 for the second.

Compared with GCGGTGAA, GGCAAACC is lower in “PBM E-score” value: -0.174 for the first, -0.274 for the second.

Going from AGCGTTCA to CATACCTC, the “PBM E-score” value rises from -0.194 to 0.0495.

Going from ACTCATCC to AAACAGCC, the “PBM E-score” value falls from 0.455 to -0.213.

Going from GCTACGAA to ATGATTGG, the “PBM E-score” value rises from -0.0422 to 0.286.

Compared with ACCTCTCT, ATCAGGCA is higher in “PBM E-score” value: -0.246 for the first, 0.147 for the second.

First: GCATGTAA
Second: AGCCTGAC
The “PBM E-score” value of the first is lower: -0.267 for the first, 0.0969 for the second.

First: AAAGTGAT
Second: CAATCTGG
The “PBM E-score” value of the first is higher: 0.177 for the first, -0.19 for the second.

First: CACATTAA
Second: TAGATCAA
The “PBM E-score” value of the first is higher: 0.148 for the first, 0.0854 for the second.

First: GATACCCA
Second: AACGCTCC
The “PBM E-score” value of the first is higher: 0.137 for the first, -0.161 for the second.

Compared with GACCCACC, ACTAAAGC is higher in “PBM E-score” value: -0.00254 for the first, 0.264 for the second.

Compared with GCACGATA, AAAGCGTA is lower in “PBM E-score” value: 0.0271 for the first, -0.235 for the second.

Compared with AATTTCGT, AGATAAAA is higher in “PBM E-score” value: -0.0756 for the first, 0.0997 for the second.

Compared with AGGAACTC, GACACATA is higher in “PBM E-score” value: 0.0535 for the first, 0.0972 for the second.

First: AGTAACGA
Second: AAGGTAGT
The “PBM E-score” value of the first is lower: 0.0276 for the first, 0.124 for the second.

Compared with AACGCAGC, AAGCGACA is higher in “PBM E-score” value: -0.23 for the first, -0.208 for the second.

Compared with CGCTTGAG, AGGTCCAT is lower in “PBM E-score” value: -0.00393 for the first, -0.148 for the second.

Going from CACTCACA to TCGCTAAA, the “PBM E-score” value rises from 0.0403 to 0.0799.

Going from ACTGTTCA to CGATATCA, the “PBM E-score” value falls from -0.0258 to -0.102.

Compared with AATCGCCG, GCCGGTGA is higher in “PBM E-score” value: 0.07 for the first, 0.146 for the second.

First: CACCGTCC
Second: CCGACACA
The “PBM E-score” value of the first is lower: -0.0361 for the first, 0.0878 for the second.

Compared with AGGCCGCA, ATTATATA is higher in “PBM E-score” value: -0.226 for the first, 0.244 for the second.

Going from CGAGTTAG to GACAGGGA, the “PBM E-score” value falls from 0.0758 to -0.114.

Going from AAAGCGTT to CCCGTAGG, the “PBM E-score” value falls from -0.0894 to -0.0914.

First: CTACACAA
Second: GGCACCCA
The “PBM E-score” value of the first is higher: 0.111 for the first, -0.133 for the second.

First: CCTCCATA
Second: ATAGCCGG
The “PBM E-score” value of the first is lower: -0.0747 for the first, 0.0779 for the second.

Going from CCTAACTA to CGCTCCCA, the “PBM E-score” value falls from -0.0731 to -0.186.

Compared with ACATTCTG, CAAGAGTC is higher in “PBM E-score” value: -0.0411 for the first, 0.434 for the second.

First: GTTTGTAA
Second: CCCAGATC
The “PBM E-score” value of the first is higher: -0.0586 for the first, -0.306 for the second.

First: CACTGGGG
Second: CAGACAAA
The “PBM E-score” value of the first is lower: -0.176 for the first, 0.0225 for the second.

Going from ATGGAAAC to GCATAACC, the “PBM E-score” value falls from -0.134 to -0.275.

First: ATACCCGG
Second: CCTGCAGA
The “PBM E-score” value of the first is lower: -0.227 for the first, -0.0767 for the second.

First: GCGTCGTA
Second: CACAATGC
The “PBM E-score” value of the first is higher: -0.0627 for the first, -0.0751 for the second.

Going from AACCGCCC to ATGAATCG, the “PBM E-score” value rises from -0.161 to 0.355.

Compared with GAAAGCAC, GATTACGA is higher in “PBM E-score” value: -0.138 for the first, 0.268 for the second.

First: AGCGGGAC
Second: ACACTTAG
The “PBM E-score” value of the first is lower: -0.121 for the first, -0.0508 for the second.

Going from GCAGTGGA to GACTGCCC, the “PBM E-score” value rises from 0.0519 to 0.189.

First: GATGGAGC
Second: AAGGCTAA
The “PBM E-score” value of the first is lower: -0.232 for the first, 0.221 for the second.

Compared with AGTTCTTC, ATCTTTTG is lower in “PBM E-score” value: 0.0732 for the first, -0.00455 for the second.

Compared with ACTACACG, CCTTTCGA is lower in “PBM E-score” value: 0.137 for the first, -0.098 for the second.

Going from GCGCTTTA to CGCTTCAA, the “PBM E-score” value rises from -0.161 to -0.101.

Going from CACGGCTA to ACGAGAGC, the “PBM E-score” value falls from -0.0631 to -0.143.

Going from AGGGCTAA to ACTAGCTA, the “PBM E-score” value falls from 0.0634 to -0.0796.

Going from AACTATCG to GCGAGATA, the “PBM E-score” value falls from -0.0636 to -0.116.

First: TCGGACCA
Second: CTATGACC
The “PBM E-score” value of the first is lower: -0.00066 for the first, 0.107 for the second.

Compared with GACTAGGA, CGATCAAG is lower in “PBM E-score” value: 0.376 for the first, 0.029 for the second.

Source: the supplement of paper PMC3334620
